# Assay results: PubChem BioAssay AID504333 (National Center for Advancing Translational Sciences (NCATS), 2011)
# The whole screen tested about 360,000 compounds, of which about 16,000 (4.4%) were called active. The inconclusive results got no clear call from the source; some entries with a clear call stand among them for comparison. Calls come from the whole dose curve; as a rule, active = well fitted inhibition curve with a large enough effect; inconclusive = small, poorly fitted or top-dose-only effect; inactive = no such curve, though single readings can be large or run the other way. Where the call is inconclusive, the potency comes from a doubtful curve fit.
# Biological target: Bromodomain adjacent to zinc finger domain protein 2B (Homo sapiens) (UniProt Q9UIF8)
# UniProt Q9UIF8, sequence (Q9UIF8 whole entry, looked up, the tested form may be a part): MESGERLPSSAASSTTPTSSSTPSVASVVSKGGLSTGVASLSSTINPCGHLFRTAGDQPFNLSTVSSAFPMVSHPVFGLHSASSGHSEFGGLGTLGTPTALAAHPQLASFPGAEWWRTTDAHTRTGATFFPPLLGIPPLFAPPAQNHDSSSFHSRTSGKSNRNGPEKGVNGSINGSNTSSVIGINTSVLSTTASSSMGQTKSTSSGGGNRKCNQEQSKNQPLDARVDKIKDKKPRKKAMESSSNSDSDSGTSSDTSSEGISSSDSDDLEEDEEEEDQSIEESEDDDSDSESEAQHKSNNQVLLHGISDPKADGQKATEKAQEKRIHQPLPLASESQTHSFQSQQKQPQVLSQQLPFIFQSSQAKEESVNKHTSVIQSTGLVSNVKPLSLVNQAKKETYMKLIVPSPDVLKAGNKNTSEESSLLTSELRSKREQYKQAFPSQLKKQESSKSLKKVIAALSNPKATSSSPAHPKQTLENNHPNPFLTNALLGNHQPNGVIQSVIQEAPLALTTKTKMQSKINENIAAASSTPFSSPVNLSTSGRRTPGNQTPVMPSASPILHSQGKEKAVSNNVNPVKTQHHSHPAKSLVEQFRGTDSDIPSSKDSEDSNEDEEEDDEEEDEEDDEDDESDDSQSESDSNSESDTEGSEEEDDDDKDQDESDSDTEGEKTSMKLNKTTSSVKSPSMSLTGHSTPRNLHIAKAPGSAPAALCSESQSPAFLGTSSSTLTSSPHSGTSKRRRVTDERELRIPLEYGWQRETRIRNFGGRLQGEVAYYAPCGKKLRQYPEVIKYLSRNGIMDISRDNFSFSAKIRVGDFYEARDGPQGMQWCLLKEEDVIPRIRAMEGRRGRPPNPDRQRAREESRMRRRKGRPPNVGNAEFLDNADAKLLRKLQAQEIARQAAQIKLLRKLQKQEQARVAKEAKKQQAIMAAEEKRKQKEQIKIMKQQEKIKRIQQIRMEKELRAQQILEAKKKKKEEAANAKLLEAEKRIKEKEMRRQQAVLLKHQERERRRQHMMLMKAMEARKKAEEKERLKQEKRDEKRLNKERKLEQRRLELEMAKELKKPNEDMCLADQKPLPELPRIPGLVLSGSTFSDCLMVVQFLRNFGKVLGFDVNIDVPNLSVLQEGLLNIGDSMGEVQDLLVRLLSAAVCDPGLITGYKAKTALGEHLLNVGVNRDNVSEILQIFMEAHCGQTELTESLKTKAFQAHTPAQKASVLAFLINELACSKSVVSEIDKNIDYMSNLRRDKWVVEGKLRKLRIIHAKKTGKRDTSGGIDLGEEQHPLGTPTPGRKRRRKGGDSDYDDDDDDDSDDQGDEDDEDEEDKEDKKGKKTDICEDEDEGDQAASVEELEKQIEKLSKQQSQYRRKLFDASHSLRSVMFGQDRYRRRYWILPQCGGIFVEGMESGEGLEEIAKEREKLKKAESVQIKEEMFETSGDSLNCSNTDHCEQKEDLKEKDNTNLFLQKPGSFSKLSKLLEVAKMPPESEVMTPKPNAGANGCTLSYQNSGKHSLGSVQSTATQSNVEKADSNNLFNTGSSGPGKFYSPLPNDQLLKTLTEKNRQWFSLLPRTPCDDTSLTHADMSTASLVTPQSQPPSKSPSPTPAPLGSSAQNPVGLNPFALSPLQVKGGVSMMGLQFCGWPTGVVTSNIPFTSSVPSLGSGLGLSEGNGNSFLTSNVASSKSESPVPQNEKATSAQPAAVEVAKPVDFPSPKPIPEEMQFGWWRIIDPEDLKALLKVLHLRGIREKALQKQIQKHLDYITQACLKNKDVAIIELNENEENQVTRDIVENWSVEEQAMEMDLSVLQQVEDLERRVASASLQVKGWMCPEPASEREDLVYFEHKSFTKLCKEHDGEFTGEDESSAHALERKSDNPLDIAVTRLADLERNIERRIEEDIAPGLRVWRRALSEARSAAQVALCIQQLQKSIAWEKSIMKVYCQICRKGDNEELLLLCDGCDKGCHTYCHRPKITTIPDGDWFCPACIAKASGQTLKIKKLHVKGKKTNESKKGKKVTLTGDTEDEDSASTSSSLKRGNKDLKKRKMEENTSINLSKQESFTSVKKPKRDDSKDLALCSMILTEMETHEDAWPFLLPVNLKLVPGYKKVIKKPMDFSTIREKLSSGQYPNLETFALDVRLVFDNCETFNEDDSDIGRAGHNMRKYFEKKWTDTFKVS
# Test: qHTS Assay for Inhibitors of BAZ2B; note: nearly all actives have a fitted effect of over 60% in size
# Conditions: AlphaScreen BAZ2B-H3K14Ac peptide displacement; activity change, negative = inhibition: at 114 µM (top of the series)
# In short: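 In this displacement format the biotinylated H3(5-23) peptide acetylated at Lys14 serves as ligand at 50 nM, with BAZ2B at 50 nM in PBS pH 7.4 containing 0.01% Tween-20. Donor and acceptor beads are 10 ug/mL final.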
# % is set by controls: 0 for no effect and ±100 for the full control effect; potency is the fitted concentration of half-maximal effect; tags give direction and shape of the fitted curve.
Structure (SMILES),Potency,"activity change, negative = inhibition"
C=CCn1c(O)c(/C=C2\C=NN=C2c2ccccc2)sc1=S,"inconclusive: 25.1 µM [inhibitor, full curve]",–
CCNC(=S)N1CCN(C(=O)C(Cc2ccccc2)NC(C)=O)CC1 (stereo not drawn),–,inactive: -36.2%
Cc1ccc2nc(NNC(=O)c3ccc(S(=O)(=O)N4CCc5ccccc5C4)cc3)sc2c1,active: 4.47 µM,–
Cc1c(N=c2scc(-c3ccccc3)n2C)c(=O)n(-c2ccccc2)n1C,"inconclusive: 79.4 µM [inhibitor, single point]",–
CN(C)CCN(Cc1ccco1)C(=O)c1cc2c(s1)-c1ccccc1OC2,–,inactive: -14.7%
CCOC(=O)Cc1ncccc1C(=O)Nc1ccc(Oc2ccccc2)cc1,"inconclusive: 56.2 µM [inhibitor, partial curve, poor fit]",–
Cc1ccccc1N=Cc1cc2c(cc1[N+](=O)[O-])OCO2,"inconclusive: 44.7 µM [inhibitor, partial curve]",–
Cc1cc(C(=O)COC(=O)C2=COCCO2)c(C)n1-c1cccc(F)c1,"inconclusive: 89.1 µM [inhibitor, single point]",–
CCOC(=O)N1CCc2c(sc3c2c(=O)n(-c2ccc(F)cc2)c(=O)n3CC(=O)c2ccc(Cl)cc2)C1,–,inactive: -6.67%
COc1ccc(CNc2nc3c(c(=O)n(Cc4ccc(Br)cc4)c(=O)n3C)n2C)cc1,"inconclusive: 44.7 µM [inhibitor, partial curve]",–
COc1cc(/C=N/N=C2/NC(=O)C(CC(=O)O)S2)ccc1OCc1ccc(Cl)cc1 (stereo not drawn),"inconclusive: 89.1 µM [inhibitor, single point]",–
O=C(N/N=C/C(Cl)=C/c1ccccc1)c1ccc2c(c1)OCO2,"inconclusive: 89.1 µM [inhibitor, single point]",–
Cc1cc(Cl)ccc1OC(C)C(=O)Nc1ccc(S(=O)(=O)Nc2cnc3ccccc3n2)cc1 (stereo not drawn),–,inactive: -8.84% [at 57.1 µM]
CC(=O)N(/N=C1\Sc2ccccc2C1=O)c1ccc(C)cc1C,"inconclusive: 70.8 µM [inhibitor, partial curve]",–
COCc1cc(CN2CCN(C)CC2)c(O)c2ncccc12,active: 1.12 µM,–
Cc1ccc(NC(=O)CSc2nc(-c3cccs3)nc3cc(=O)[nH]n23)cc1C,active: 50.1 µM,–
CCOc1ccccc1CN1CCc2nc(N3CCN(C)CC3)ncc2C1,active: 79.4 µM,–
COc1ccc(-c2cn3cccnc3n2)cc1NC(=O)Nc1cc(C)ccc1C,"inconclusive: 89.1 µM [inhibitor, single point]",–
Cc1ccc2c(c1)N(C)/C(=C/c1cccc[n+]1C)S2,"inconclusive: 79.4 µM [inhibitor, single point]",–
O=C(/C=C/Sc1ccccc1)c1ccc(Cl)cc1,–,inactive: 17.4%
Cn1cccc1Cc1nnc(SCC(=O)Nc2ccccc2F)n1CCc1ccccc1,"inconclusive: 79.4 µM [inhibitor, single point]",–
N#C/C(=C(/O)c1ccc([N+](=O)[O-])cc1)c1nnc2n1CCCCC2,"inconclusive: 79.4 µM [inhibitor, partial curve]",–
Cn1c(SCc2c(F)cccc2Cl)nc2c(c1=O)SCC2,active: 28.2 µM,–
CCc1oc(C(=O)O)cc1COC,"inconclusive: 79.4 µM [inhibitor, partial curve]",–
Cc1noc(C)c1COC(=O)c1ccc(S(=O)(=O)NCc2ccco2)cc1,"inconclusive: 89.1 µM [inhibitor, single point]",–

Structure (SMILES),Potency,"activity change, negative = inhibition"
Cc1ccc(CNC(=O)Cn2c(=O)cc(C)c3c(C)nn(-c4cccc(F)c4)c32)cc1,–,inactive: -1.46%
C#CCN1C(=O)S/C(=C/C=C/c2ccc(N(C)C)cc2)C1=O,active: 10 µM,–
CCOC(=O)c1ccccc1NC(=O)CSc1nnc(Cc2cccn2C)n1-c1ccc(F)cc1,"inconclusive: 79.4 µM [inhibitor, single point]",–
O=C(O)c1cccc(S(=O)(=O)NCCc2ccccc2)c1,–,inactive: -6.6%
CCc1ccc(NC(=O)Nc2ccccc2OCc2cc(=O)n3ccccc3n2)cc1,–,inactive: 4.32%
COc1ccccc1NC(=O)CSc1ccc(-c2ccc(-n3cccn3)cc2)nn1,"inconclusive: 79.4 µM [inhibitor, single point]",–
O=[N+]([O-])c1ccccc1/C=C/C=N/N1CCCCC1,active: 20 µM,–
COc1ccccc1C(=O)Nc1ccc2c(c1)OCO2,"inconclusive: 89.1 µM [inhibitor, single point]",–
Cc1ccc(C(=O)NCCN2C3=NC[C@@H](Cc4ccccc4)N3C[C@H]2Cc2ccc(O)cc2)cc1Br,"inconclusive: 50.1 µM [inhibitor, partial curve]",–
CCn1cc(C(=O)NC(=S)Nc2ccccc2[N+](=O)[O-])cn1,"inconclusive: 79.4 µM [inhibitor, single point]",–
Cc1ccc(S(=O)(=O)Nc2ccc3nc(C)sc3c2)cc1,–,inactive: -0.693%
CN(Cc1ccccc1Br)C(=O)CSc1nnnn1C1CC1,–,inactive: 5.45%
COC(=O)[C@@]12CCCN1[C@H](c1ccc(-c3ccc(Cl)c(Cl)c3)cc1)[C@H]1C(=O)N(C)C(=O)[C@H]12,"inconclusive: 50.1 µM [inhibitor, partial curve]",–
CN(C(=S)NC1=CCS(=O)(=O)C1)C1CCCCC1,–,inactive: -0.22%
CC1CCCN(C(=O)CN2C(=O)c3ccccc3C2=O)C1 (stereo not drawn),"inconclusive: 79.4 µM [inhibitor, single point]",–
Cc1c(Cc2ccccc2)c(=O)oc2c(C)c(OC(C)C(=O)N[C@@H](Cc3ccccc3)C(=O)O)ccc12 (stereo partly drawn),"inconclusive: 79.4 µM [inhibitor, single point]",–
O=C(Nc1ccc(Cc2ccncc2)cc1)C1CCC(N2C(=O)C3CCCCC3C2=O)CC1 (stereo not drawn),–,inactive: -28.3%
COc1ccc(C(CNCC(O)COc2c(C)ccc(C)c2C)N(C)C)cc1 (stereo not drawn),active: 56.2 µM,–
CCN(C(=O)CSc1nc2ccccc2c(=O)n1Cc1ccc(C)cc1)C1CCS(=O)(=O)C1 (stereo not drawn),–,inactive: -0.938%
NC(=O)CC(NC(=O)Cc1cccc2ccccc12)c1ccc(N2CCCCCCC2)c([N+](=O)[O-])c1 (stereo not drawn),"inconclusive: 3.55 µM [inhibitor, full curve, poor fit]",–
CC(C)COCC(CN(Cc1ccccc1)c1ccccc1)N1CCCC1 (stereo not drawn),"inconclusive: 39.8 µM [inhibitor, partial curve]",–
N=C1/C(=C\c2ccc(SCc3ccco3)o2)C(=O)N=C2SC=NN12,"inconclusive: 70.8 µM [inhibitor, single point]",–
Cc1cc(C)cc(NC(=O)CSc2cc(C(=O)c3nccn3C)c3ccccc3n2)c1,–,inactive: 9.61%
N=c1n(CCN2CCOCC2)c2ccccc2n1CC(=O)c1ccc(Cl)c(Cl)c1,"inconclusive: 31.6 µM [inhibitor, partial curve]",–
O=C(O/N=C\c1ccc(N2CCCCC2)c([N+](=O)[O-])c1)c1cccc(Cl)c1,"inconclusive: 7.94 µM [inhibitor, full curve]",–

Structure (SMILES),Potency,"activity change, negative = inhibition"
CCOc1ccc(-c2cc(C(=O)NCCCN3CCCC3)c3ccccc3n2)cc1,–,inactive: -22%
CCOc1ccc(CC(=O)NC2CC(C)(C)N(C)C(C)(C)C2)cc1OCC,–,inactive: 16.3%
CSc1ccccc1NC(=O)Nc1cccc(Cl)c1Cl,–,inactive: 7.42%
Cc1cc(C)c(NC(=O)C(C)n2c(=O)cc(-c3ccccc3)c3c(C)nn(C)c32)c(C)c1 (stereo not drawn),–,inactive: 1.15%
CC1CN(c2oc(-c3ccco3)nc2C#N)CC(C)O1 (stereo not drawn),–,inactive: -28.8%
O=C(c1nc2ccccn2c1CN1CCN(c2ccccc2O)CC1)N1CCCC1,"inconclusive: 89.1 µM [inhibitor, single point]",–
CSCCC(NC(=O)/C(=C/c1ccc(F)cc1)NC(C)=O)C(=O)O (stereo not drawn),"inconclusive: 79.4 µM [inhibitor, single point]",–
O=C(c1ccco1)N1CCCN(Cc2cn[nH]c2-c2ccc(-c3ccccc3)cc2)CC1,"inconclusive: 50.1 µM [inhibitor, partial curve]",–
Cc1nc2nc(SCC(=O)NCCN3CCOCC3)nn2c(C)c1Cc1ccccc1,"inconclusive: 79.4 µM [inhibitor, single point]",–
CCOC(=O)c1sc(=S)n(-c2ccc3c(c2)OCO3)c1N,"inconclusive: 44.7 µM [inhibitor, partial curve]",–
CC(O)CNCCCCOc1ccc(OCc2ccccc2)cc1 (stereo not drawn),"inconclusive: 79.4 µM [inhibitor, single point]",–
COc1cc(OC)c(OC)cc1CCC(C)NCCC(c1ccccc1)c1ccccc1 (stereo not drawn),active: 12.6 µM,–
COc1ccc(NS(=O)(=O)c2cc(N)ccc2N2CCCCC2)cc1,"inconclusive: 89.1 µM [inhibitor, single point]",–
CCc1nnc(NC(=O)C(=O)NCCOC(=O)c2ccccc2)s1,"inconclusive: 89.1 µM [inhibitor, single point]",–
CCOc1ccc(-c2nnc(SCC(=O)Nc3cc(F)ccc3F)o2)cc1,–,inactive: -13.8%
Cc1ccccc1NC(=O)CCCCC(=O)Nc1ccccc1C,–,inactive: 1.93%
COc1ccc(N2CCN(c3nc4ccc(C)cn4c(=O)c3C=O)CC2)cc1,"inconclusive: 79.4 µM [inhibitor, single point]",–
CNC(=O)CSc1nnc(COc2ccc([N+](=O)[O-])cc2)n1C,active: 56.2 µM,–
CCc1ccc(OC(=O)Nc2ccccc2)cc1,–,inactive: 4.46%
O=C1/C(=C/c2ccc([N+](=O)[O-])cc2)C=C(c2ccccc2)N1c1ccc(O)cc1,active: 10 µM,–
OC(COCc1ccc2c(c1)OCO2)CN1CCN(Cc2ccccc2)CC1 (stereo not drawn),"inconclusive: 70.8 µM [inhibitor, single point]",–
Nc1n[nH]c(N)c1N=Nc1ccc2c(c1)OCO2,active: 39.8 µM,–
C/C(=N\NC(=O)c1cc(O)cc(O)c1)c1ccc(NC(=O)Cc2ccccc2)cc1,active: 8.91 µM,–
